Data from patent US20240049713A1, “METHOD FOR CONTROLLING HERBICIDE-RESISTANT WEEDS” (SUMITOMO CHEMICAL COMPANY, LIMITED, priority 2020, published 2024).

Experiments:
[1] = tested on: PPO inhibitor-resistant weeds; test: plastic pot tests as Examples 1 to 72 and variants (Examples 73 to 3456)
Experimental: (§1) In a plastic pot, palmer amaranth (Amaranthus palmeri) having an Arg128Met mutation in PPO2 is seeded. On the same day, compound X is applied to the surface of soil so that the application rate of the compound X is 10, 20, 40 or 80 g/ha and the spray volume is 200 L/ha. The plastic pot is then placed in a greenhouse, and at 7 days after the application, soybeans are seeded, and further at 14 days after seeding the soybeans, the effect on the weeds and crop injuries on the soybeans are investigated.
(§2) In a plastic pot, palmer amaranth (Amaranthus palmeri) having an Arg128Met mutation in PPO2 and soybeans are seeded. On the same day, compound X is applied to the surface of soil so that the application rate of the compound X is 10, 20, 40 or 80 g/ha and the spray volume is 200 L/ha. The soybeans are then cultivated in a greenhouse, and at 21 days after seeding, the effect on the weeds and crop injuries on the soybeans are investigated.
(§3) In a plastic pot, palmer amaranth (Amaranthus palmeri) having an Arg128Met mutation in PPO2 and soybeans are seeded. The soybeans are then cultivated in a greenhouse, and at 21 days after seeding, compound X is foliar-treated so that the application rate of the compound X is 10, 20, 40 or 80 g/ha and the spray liquid amount is 200 L/ha. Further, the soybeans are cultivated in the greenhouse, and at 14 days after the application of compound X, the effect on the weeds and crop injuries on the soybeans are investigated.
In each application of Examples 1 to 216, in addition to the compound X, the compound Y or the compound Z, RoundupPowerMax (glyphosate-potassium salt 660 g/L) is further added so that the application rate is 32 fluid ounce/acre (1,543 g/ha as glyphosate-potassium salt). Then the application procedure is performed in the same manner.
In each application of Examples 1 to 216, in addition to the compound X, the compound Y or the compound Z, XtendiMax (dicamba-diglycolamine salt 480 g/L) is further added so that the application rate is 1 pint/acre (560 g/ha as dicamba). Then the application procedure is performed in the same manner.
In each application of Examples 1 to 216, in addition to the compound X, the compound Y or the compound Z, RoundupPowerMax and XtendiMax are further added so that the application rate of RoundupPowerMax is 32 fluid ounce/acre and the application rate of XtendiMax is 1 pint/acre, respectively. Then the application procedure is performed in the same manner.
The application is performed in the same manner, except that soybean of Examples 1 to 864 is replaced by corn or cotton.
Then the application procedure is performed in the same manner.

[2] = tested on: palmer amaranth (Amaranthus palmeri) having an Arg128Met mutation in PPO2; conditions: 200 L/ha
Experimental: as §1, §2, §3

[3] = tested on: palmer amaranth (Amaranthus palmeri) having a Gly399Ala mutation in PPO2; conditions: rating 0 to 100, sprayed at plant height 20 cm, 200 L/ha, 1% (w/v) Agri-Dex, evaluated after 14 days in greenhouse
Experimental: (§4) The compound X (55 mg) produced in Reference Production Example 1, Emulsogen TS290 (polyoxyethylene tristyrylphenyl ether, manufactured by Clariant) (76.5 mg), and Phenylsulfonat CAL (mixture of 70% calcium dodecylbenzene sulfonate and 30% isobutanol, manufactured by Clariant) (76.5 mg) were dissolved in Solvesso 200ND (aromatic hydrocarbon, manufactured by Exxon Mobile) to make a total volume of 1 ml, thus preparing a emulsifiable concentrate (hereinafter referred to as Formulation X).
(§5) Soil was filled in a plastic pot, and palmer amaranth (Amaranthus palmeri) having a Gly210 deficiency in PPO2, palmer amaranth (Amaranthus palmeri) containing an Arg128gly mutation in PPO2, and palmer amaranth (Amaranthus palmeri) having a Gly399Ala mutation in PPO2 were seeded, and then grown in a greenhouse. When the plant height reached 20 cm, spray liquid obtained by diluting a predetermined amount of the formulation X with water containing a 1% (w/v) spreader (Agri-Dex) was evenly sprayed from above the pot using a sprayer such that the spray volume was 200 L/ha and the application rate of the compound X was 20 or 40 g/ha. The plants were then grown for 14 days in the greenhouse, and the herbicidal effect was evaluated. As a control, the formulation X was replaced by a tiafenacil microemulsion Terrador (manufactured by Dongbu Farm Hannong Co., Ltd.), and the application procedure was carried out in the same manner.

[4] = tested on: palmer amaranth (Amaranthus palmeri) having a Gly210 deficiency in PPO2; conditions: rating 0 to 100, sprayed at plant height 20 cm, 200 L/ha, 1% (w/v) Agri-Dex, evaluated after 14 days in greenhouse
Experimental: as §4, §5

[5] = tested on: palmer amaranth (Amaranthus palmeri) containing an Arg128gly mutation in PPO2; conditions: rating 0 to 100, sprayed at plant height 20 cm, 200 L/ha, 1% (w/v) Agri-Dex, evaluated after 14 days in greenhouse
Experimental: as §4, §5

[6] = as Examples 1 to 216, RoundupPowerMax further added at 32 fluid ounce/acre (1,543 g/ha as glyphosate-potassium salt)
[7] = as Examples 1 to 216, XtendiMax further added at 1 pint/acre (560 g/ha as dicamba)

SMILES	effect on the weeds [1, 6]	effect on the weeds [1, 7]	effect on the weeds ([2]; foliar treatment 21 days after seeding, 10, 20, 40 or 80 g/ha, investigated 14 days after application)	effect on the weeds ([2]; soil surface application on day of weed seeding, 10, 20, 40 or 80 g/ha, soybeans seeded 7 days after application, investigated 14 days after seeding the soybeans)	effect on the weeds ([2]; weed and soybeans seeded, soil surface application same day, 10, 20, 40 or 80 g/ha, investigated 21 days after seeding)	herbicidal effect ([3]; 20 g/ha)	herbicidal effect ([3]; 40 g/ha)	herbicidal effect ([4]; 20 g/ha)	herbicidal effect ([4]; 40 g/ha)	herbicidal effect ([5]; 40 g/ha)	herbicidal effect ([5]; 20 g/ha)
CCOC(=O)COC(=O)C1(Oc2cc(-n3c(=O)cc(C(F)(F)F)n(C)c3=O)c(F)cc2Cl)CC1 [Compound X]	effective control effect	effective control effect	effective control effect	effective control effect	effective control effect	99	98	95	98	95	–
COC(=O)CCNC(=O)C(C)Sc1cc(-n2c(=O)cc(C(F)(F)F)n(C)c2=O)c(F)cc1Cl (centres unmarked) [Tiafenacil, tiafenacil, reference compound]	–	–	–	–	–	40	40	20	30	40	30
COC(=O)COC(=O)C1(Oc2cc(-n3c(=O)cc(C(F)(F)F)n(C)c3=O)c(F)cc2Cl)CC1 [Compound Y]	effective control effect	effective control effect	–	–	–	–	–	–	–	–	–
Cn1c(C(F)(F)F)cc(=O)n(-c2cc(OC3(C(=O)OCC(=O)O)CC3)c(Cl)cc2F)c1=O [Compound Z]	effective control effect	effective control effect	–	–	–	–	–	–	–	–	–

Where two headings read alike, the source gives them in different places.
